Laboratory results taken from the supplement of paper PMC7826260.
The list shows a part of the results. One pool of 16,384 single-stranded DNAs met each Rep nickase domain in vitro (3 µM enzyme, 1 h, 37 °C); shown is the middle of each 90-letter strand. The score is log2 (uncut reads / reads without enzyme); uncut sequences lie near 0, cut ones below; no hit call is given. Shares of all reads are compared, so uncut sequences can rise above 0 when many others are cut.

How the values were obtained:
Experiment in all cases: uncleaved DNA left, log2 of reads against the no-enzyme library (log2 ratio); higher = less cleavage (more negative = more Rep cleavage of the k-mer); sequences stand for … in CTCGTCCG…ACCGGAGA
[1] = system: T1, Rep nickase domain of Muscovy duck circovirus
T1 sequence (protein, residues 1-111, tag omitted): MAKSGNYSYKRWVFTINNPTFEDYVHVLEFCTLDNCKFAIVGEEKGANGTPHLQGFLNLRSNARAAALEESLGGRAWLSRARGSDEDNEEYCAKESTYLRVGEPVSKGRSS
Method: (§1)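 A pool of 90-nt single-stranded DNAs with seven random bases just before the constant AC of the nick site (name = the seven bases) was cut by 3 µM recombinant His6-SUMO-tagged Rep nickase domain (300 nM DNA, 50 mM HEPES pH 8.0, 50 mM NaCl, 1 mM MnCl2, 1 h, 37 °C, three replicates). Uncut DNA was amplified and sequenced.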

[2] = system: T2, Rep nickase domain of banana bunchy top virus
T2 sequence (protein, residues 1-94, tag omitted): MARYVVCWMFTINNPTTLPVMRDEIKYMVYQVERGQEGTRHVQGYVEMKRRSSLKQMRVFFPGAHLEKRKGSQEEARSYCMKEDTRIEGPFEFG
Method: as §1

[3] = system: T3, Rep nickase domain of cabbage leaf curl virus
T3 sequence (protein, residues 1-116, tag omitted): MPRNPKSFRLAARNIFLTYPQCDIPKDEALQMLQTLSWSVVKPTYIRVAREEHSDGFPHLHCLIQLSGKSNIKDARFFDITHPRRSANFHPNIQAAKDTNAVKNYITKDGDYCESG
Method: as §1

[4] = system: T4, Rep nickase domain of chickpea chlorotic dwarf virus
T4 sequence (protein, residues 1-124, tag omitted): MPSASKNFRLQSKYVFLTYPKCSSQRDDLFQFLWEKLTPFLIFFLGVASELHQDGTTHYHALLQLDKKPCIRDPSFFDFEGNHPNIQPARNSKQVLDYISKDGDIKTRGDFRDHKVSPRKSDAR
Method: as §1

[5] = system: T5, Rep nickase domain of faba bean necrotic yellows virus
T5 sequence (protein, residues 1-98, tag omitted): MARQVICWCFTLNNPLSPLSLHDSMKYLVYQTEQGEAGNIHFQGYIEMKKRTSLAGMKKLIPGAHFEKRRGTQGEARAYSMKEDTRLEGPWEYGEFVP
Method: as §1

[6] = system: T6, Rep nickase domain of maize striate mosaic virus
T6 sequence (protein, residues 1-117, tag omitted): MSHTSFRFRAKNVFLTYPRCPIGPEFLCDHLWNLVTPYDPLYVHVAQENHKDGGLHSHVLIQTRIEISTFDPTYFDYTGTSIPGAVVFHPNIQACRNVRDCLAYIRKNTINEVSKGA
Method: as §1

[7] = system: T7, Rep nickase domain of porcine circovirus 2
T7 sequence (protein, residues 2-116, tag omitted): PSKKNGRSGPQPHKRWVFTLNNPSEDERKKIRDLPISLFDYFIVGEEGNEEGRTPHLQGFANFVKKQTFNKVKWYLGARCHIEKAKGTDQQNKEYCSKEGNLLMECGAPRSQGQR
Method: as §1

[8] = system: T8, Rep nickase domain of tomato golden mosaic virus
T8 sequence (protein, residues 1-124, tag omitted): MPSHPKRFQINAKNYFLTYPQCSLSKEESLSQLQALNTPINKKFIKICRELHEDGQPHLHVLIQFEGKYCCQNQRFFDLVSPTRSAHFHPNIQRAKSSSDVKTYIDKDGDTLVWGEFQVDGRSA
Method: as §1

[9] = system: T9, Rep nickase domain of tomato yellow leaf curl virus
T9 sequence (protein, residues 1-136, tag omitted): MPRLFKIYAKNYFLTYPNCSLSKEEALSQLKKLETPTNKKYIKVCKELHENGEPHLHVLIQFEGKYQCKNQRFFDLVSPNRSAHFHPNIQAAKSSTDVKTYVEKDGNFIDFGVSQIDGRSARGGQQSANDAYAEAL
Method: as §1

[10] = system: T10, Rep nickase domain of wheat dwarf virus
T10 sequence (protein, residues 1-137, tag omitted): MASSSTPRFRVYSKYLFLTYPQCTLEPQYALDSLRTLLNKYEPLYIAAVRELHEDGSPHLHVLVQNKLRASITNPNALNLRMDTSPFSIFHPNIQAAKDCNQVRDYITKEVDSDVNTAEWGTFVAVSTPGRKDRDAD
Method: as §1

| Sequence | uncleaved DNA left (log2) [1] | uncleaved DNA left (log2) [2] | uncleaved DNA left (log2) [3] | uncleaved DNA left (log2) [4] | uncleaved DNA left (log2) [5] | uncleaved DNA left (log2) [6] | uncleaved DNA left (log2) [7] | uncleaved DNA left (log2) [8] | uncleaved DNA left (log2) [9] | uncleaved DNA left (log2) [10] |
| --- | --- | --- | --- | --- | --- | --- | --- | --- | --- | --- |
| TCCATGA | 0.0382 | -0.0421 | -0.0882 | -0.066 | -0.00343 | -0.88 | 0.0494 | 0.13 | 0.0248 | -0.0462 |
| GAGCGGG | 0.0268 | 0.118 | 0.0345 | 0.472 | 0.0185 | 1.04 | 0.125 | 0.141 | 0.154 | -0.0283 |
| CTGCTTT | 0.118 | -0.101 | -0.24 | -1.92 | 0.1 | -0.781 | -0.339 | -0.125 | -0.0449 | -0.0109 |
| GCCATCA | -0.00306 | 0.0946 | 0.0678 | 0.227 | -0.0275 | -0.0159 | 0.0464 | 0.0519 | 0.114 | 0.0242 |
| TGTACTC | -0.00776 | 0.0186 | 0.331 | 0.398 | 0.0318 | 1.03 | 0.0653 | -0.0102 | 0.113 | 0.106 |
| CTGTGTA | -0.178 | -0.182 | -0.276 | -0.754 | -0.0559 | -0.696 | -0.488 | -0.119 | -0.101 | -0.11 |
| CATTTAT | -3.43 | -3.56 | -0.223 | -2 | -0.0851 | -0.79 | -3.4 | -0.0664 | -0.0828 | -0.0315 |
| CTATGGC | -0.0791 | -0.166 | -0.605 | -0.695 | -0.149 | -1.16 | -0.178 | -0.132 | -0.172 | -0.196 |
| GTTCGTG | 0.0635 | 0.104 | -0.087 | -0.182 | 0.0942 | -0.375 | 0.23 | 0.0794 | 0.141 | 0.086 |
| CCGGTAG | -0.0624 | -0.148 | -0.819 | -0.265 | -0.0258 | -0.762 | 0.173 | -0.00188 | -0.0643 | -0.0855 |
| TTCTTTA | 0.0438 | 0.0584 | 0.191 | -0.795 | 0.188 | 0.161 | -0.212 | 0.222 | 0.011 | 0.0512 |
| TAGCTAA | -0.01 | 0.031 | 0.0536 | -0.822 | 0.0261 | -0.0412 | -0.529 | 0.0515 | 0.0128 | 0.0644 |
| GATTCGA | 0.0285 | -0.066 | -0.397 | -0.39 | -0.111 | -0.85 | -0.0122 | -0.174 | -0.0967 | -0.121 |
| AAGCCGC | 0.0361 | -0.185 | -0.559 | -0.71 | -0.0279 | -0.941 | -0.00484 | -0.0783 | -0.15 | -0.306 |
| CGATATA | -0.0309 | -0.0464 | -0.353 | -0.848 | 0.00297 | -0.381 | -0.173 | -0.0684 | -0.0803 | 0.117 |
